From publication PMC6801735, “Identification of New DR5 Agonistic Nanobodies and Generation of Multivalent Nanobody Constructs for Cancer Treatment” (International Journal of Molecular Sciences, 2019)

Target: T1, TNF-related apoptosis-inducing ligand (TRAIL), soluble recombinant (human, UniProt P50591 114-281)
T1 construct: TRAIL (Apo2L), human, soluble extracellular part, amino acids 114-281 of the 281-amino acid protein; It was stabilised with 10% glycerol, 0.01% mannitol, 8% trehalose, 20 uM zinc chloride and 1 mM dithiotreitol; also called Apo2L/TRAIL; recombinant trimeric TRAIL; source: E. coli SHuffle T7 Express (pET-28a/trail), cytoplasmic, purified (Ni-NTA IMAC, SEC in PBS)
Assay: SPR; DR5 (monomer and dimer mixture) immobilised on a CM5 chip (~150 RU), Biacore T200; analyte in 150 mM NaCl, 0.005% Tween-20, 3.4 mM EDTA, 20 mM HEPES pH 7.4; 30 uL/min; 1:1 Langmuir model; apparent affinity
Conditions: both partners purified

B1: death receptor 5 (DR5) ectodomain (domain or fragment)
chain: not shown
notes: death receptor 5 (DR5, TRAIL-R2), human, ectodomain, […]; The preparation was a mixture of monomer and a disulfide-linked dimer (band around 40,000 under non-reducing conditions); also called TRAIL-R2; KILLER receptor; source: E. coli SHuffle T7 Express (pET-28a/dr5), cytoplasmic, purified (Ni-NTA IMAC, SEC in 10 mM acetate pH 5.0)
Kd: 0.453 nM
koff: 0.000313 s⁻¹
kon: 691000 M⁻¹ s⁻¹
